Reference: PubChem BioAssay (NCATS)
Inconclusive results, whose numbers are uncertain, are shown with a selection of clear calls. For some of these results: Where the call is inconclusive, the potency comes from a doubtful curve fit. Activity calls are given as the source filed them. Unless noted, calls follow the shape of the dose curve; as a rule, active = well fitted curve in the direction sought with a large enough effect; inconclusive = small, poorly fitted or top-dose-only effect, or another doubt; inactive = no such curve, though single readings can be large; an effect the other way counts as inactive or inconclusive.

Columns and labels:
[1] = P-glycoprotein substrates identified in KB-8-5-11 adenocarcinoma cell line, qHTS therapeutic library screen (AID 1346987); also: nearly all actives have a fitted effect of over 65% in size; also: potency is read from the fitted curve at half-maximal effect; as to activity change, negative = cytotoxicity: % is scaled to controls: 0 for no effect and ±100 for the full control effect
How it was run: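 Steps: plate 500 KB-8-5-11 cells/well in DMEM + 10% FCS (colchicine removed); pin compounds in dose-response; incubate 72 h, 37 degree C, 5% CO2; add CellTiter-Glo, 5 min; read luminescence.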

[2] = system: Zika virus NS2B-NS3 protease (unlinked complex); assay: Primary screen GU Rhodamine qHTS for Zika virus inhibitors: Unlinked NS2B-NS3 protease assay (AID 1347159); also: nearly all actives have a fitted effect of over 60% in size; also: potency is read from the fitted curve at half-maximal effect; as to activity change, negative = inhibition: % is scaled to controls: 0 for no effect and ±100 for the full control effect
How it was run: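 Noncovalent NS2B hydrophilic domain–NS3 protease domain complex (25 nM) preincubated 15 min at room temperature with compounds (up to 114 microM) in 10 mM Tris-HCl pH 8.0, 0.01% Tween 20; 1.5 microM Rhodamine110 substrate added, fluorescence change over 15 min fitted to Hill equation.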

[3] = system: Zika virus NS2B-NS3 protease (linked construct); assay: Primary screen NINDS Rhodamine qHTS for Zika virus inhibitors (AID 1347160); details: activity change, negative = inhibition: at 57.1 µM (top of the series) unless noted; also: % is scaled to controls: 0 for no effect and ±100 for the full control effect; nearly all actives have a fitted effect of over 55% in size
How it was run: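 Purified linked NS2B-NS3 protease (NS2B hydrophilic domain joined to NS3 protease by flexible linker), 25 nM in 10 mM Tris-HCl pH 8.0, 0.01% Tween 20. Compounds titrated, 15 min preincubation at room temperature; 1.5 microM Rhodamine110 substrate, FITC fluorescence change over 15 min.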

CRL-7250 = normal cell line; assay: Cytotoxic Profiling of Annotated Libraries Using Quantitative High-Throughput Screening (AID 1296008); details: Five cell lines viability, CellTiter-Glo ATP luminescence, 48-72 h; max response: hits give low values; also: nearly all actives have a fitted effect of over 60% in size; also: potency is read from the fitted curve at half-maximal effect; as to max response: % is scaled to controls: 0 for no effect and ±100 for the full control effect
How it was run: (§1)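 Cytotoxicity was measured as CellTiter-Glo ATP luminescence, read after 10 min at room temperature. Compound treatment of the cells lasted 48 or 72 hr at 37 degrees Celsius in a qHTS format.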

C33A = assay: Primary qHTS to identify gynecologic anti-cancer compounds using libraries of approved drugs and bioactive compounds (AID 1345084); details: Gynecologic cancer cell panel viability, ATPlite luminescence, 48 h; series mostly up to 57.5 µM; also: nearly all actives have a fitted effect of over 55% in size; also: potency is read from the fitted curve at half-maximal effect
How it was run: (§2)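 Five-concentration response, 48 h; readout is ATP-driven luciferase luminescence.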

CAOV3 = assay: as above; details: Gynecologic cancer cell panel viability, ATPlite luminescence, 48 h; activity change, negative = cytotoxicity: at 57.5 µM (top of the series)
How it was run: as §2

CASKI = assay: as above; details: Gynecologic cancer cell panel viability, ATPlite luminescence, 48 h; series mostly up to 57.5 µM
How it was run: as §2

Hek293T = assay: as above; details: Gynecologic cancer cell panel viability, ATPlite luminescence, 48 h, control line for the selectivity index; activity change, negative = cytotoxicity: at 57.5 µM (top of the series) unless noted
How it was run: as §2

OV90 = assay: as above; details: Gynecologic cancer cell panel viability, ATPlite luminescence, 48 h; series mostly up to 57.5 µM
How it was run: as §2

PA-1 = assay: as above; details: Gynecologic cancer cell panel viability, ATPlite luminescence, 48 h; series mostly up to 57.5 µM
How it was run: as §2

SKOV3 = assay: as above; details: Gynecologic cancer cell panel viability, ATPlite luminescence, 48 h; series mostly up to 57.5 µM
How it was run: as §2

Tov-21-G = assay: as above; details: Gynecologic cancer cell panel viability, ATPlite luminescence, 48 h; activity change, negative = cytotoxicity: at 57.5 µM (top of the series) unless noted
How it was run: as §2

[4] = Primary qHTS for inhibitors of nuclear receptor binding SET domain protein 2 (NSD2) in an isogenic RCH-ACV NSD2 p.E1099K mutant (9B) (AID 1645876); also: nearly all actives have a fitted effect of over 70% in size; also: potency is read from the fitted curve at half-maximal effect
[5] = Primary qHTS for inhibitors of nuclear receptor binding SET domain protein 2 (NSD2) in an RCH-ACV wild type WT cells (2C) (AID 1645877); details: activity change, negative = cell killing: at 44.9 µM (top of the series) unless noted; also: nearly all actives have a fitted effect of over 70% in size; also: potency is read from the fitted curve at half-maximal effect
NIH3T3 = assay: Cytotoxic Profiling of Annotated Libraries Using Quantitative High-Throughput Screening (AID 1296008); details: Five cell lines viability, CellTiter-Glo ATP luminescence, 48-72 h; max response: hits give low values; also: nearly all actives have a fitted effect of over 60% in size; also: potency is read from the fitted curve at half-maximal effect; as to max response: % is scaled to controls: 0 for no effect and ±100 for the full control effect
How it was run: as §1

[6] = target: Cytochrome P450 2D6 (Homo sapiens) (UniProt P10635); assay: Cytochrome P450 family 2 subfamily D member 6 (CYP2D6) small molecule antagonists: luciferase biochemical (cell-free) qHTS assay (AID 1645840; active = well fitted curve in the direction sought with a large enough effect in the repeat runs; inconclusive = weak or mixed curves; inactive = no such curve, though single readings can be large; an effect the other way counts as inactive or inconclusive; also: potency is read from the fitted curve at half-maximal effect; nearly all actives have a fitted effect of over 55% in size)
Chain of UniProt P10635 (P10635 whole entry, looked up): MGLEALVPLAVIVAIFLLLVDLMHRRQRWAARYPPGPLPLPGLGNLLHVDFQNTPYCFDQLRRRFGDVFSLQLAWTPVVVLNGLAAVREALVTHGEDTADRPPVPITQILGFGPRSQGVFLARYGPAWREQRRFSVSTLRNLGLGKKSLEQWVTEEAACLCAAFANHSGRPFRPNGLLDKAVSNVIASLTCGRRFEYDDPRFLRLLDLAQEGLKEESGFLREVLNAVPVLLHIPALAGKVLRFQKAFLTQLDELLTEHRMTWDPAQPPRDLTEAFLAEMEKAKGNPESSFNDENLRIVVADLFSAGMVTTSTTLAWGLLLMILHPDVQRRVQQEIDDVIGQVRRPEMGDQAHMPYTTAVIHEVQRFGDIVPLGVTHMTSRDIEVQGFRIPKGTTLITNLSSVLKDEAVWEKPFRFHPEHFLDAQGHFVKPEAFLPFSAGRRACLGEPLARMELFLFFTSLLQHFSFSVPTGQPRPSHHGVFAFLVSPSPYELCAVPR
How it was run: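 P450-Glo luminescent screen: recombinant CYP2D6 enzyme–proluciferin substrate mix preincubated with compound 10 min at room temperature, then NADPH regeneration added for 1 h at room temperature. Detection reagent added for 20 min; luciferin light read as relative luminescence units.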

[7] = Primary fluorescence-based thiol-reactive (MSTI) qHTS assay for identification of artifact compounds. (AID 1845221);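 also: potency is read from the fitted curve at half-maximal effect; thiol-reactive compounds lower the probe fluorescence signal; nearly all actives have a fitted effect of over 65% in size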
How it was run: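 In PBS pH 7.4 with 2% DMSO, each compound met 4 uM MSTI for one hour at ambient temperature, shielded from light, before fluorescence detection.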
Tags tell the direction and shape of the fitted curve.

## CCS(=O)(=O)c1cccc(-c2cc(C(=O)NC3CCN(C)CC3)c(C)c3[nH]c4ncc(C)cc4c23)c1
[1]
  Potency: inactive
[2]
  Potency: inactive
[3]
  Potency: inactive
CRL-7250
  Potency: inconclusive: 0.166 µM [inhibitor, full curve, poor fit]
C33A
  Potency: inconclusive: 2.51 µM [cytotoxic, partial curve, poor fit]
CAOV3
  Potency: inconclusive: 0.178 µM [cytotoxic, full curve, poor fit]
CASKI
  Potency: active: 2.82 µM
Hek293T
  Potency: active: 12.6 µM
OV90
  Potency: inconclusive: 7.08 µM [cytotoxic, partial curve, poor fit]
PA-1
  Potency: active: 1.26 µM
SKOV3
  Potency: active: 5.62 µM
Tov-21-G
  Potency: inconclusive: 1.78 µM [cytotoxic, full curve, poor fit]

## C[C@H](N)[C@H](O)c1cccc(O)c1
[1]
  Potency: inactive
[4]
  Potency: inactive
[5]
  Potency: inactive
CRL-7250
  max response: inactive: -3.27%
NIH3T3
  max response: inactive: 1.91%

## CC(C)=CCC(O)/C(C)=C/CO[C@@H]1O[C@H](CO)[C@@H](O)[C@H](O)[C@H]1O (stereo partly specified)
[5]
  Potency: inactive
CRL-7250
  outcome: inactive
NIH3T3
  max response: inactive: 0.203%
SKOV3
  Potency: inconclusive: 0.631 µM [rising, full curve, poor fit]

## CC[C@H](C(=O)Nc1ccccc1N1CCCC1)c1ccccc1
[1]
  Potency: inconclusive: 16.4 µM [inhibitor, single point]
[2]
  Potency: inconclusive: 44.7 µM [inhibitor, partial curve, poor fit]
[6]
  Potency: active: 9.52 µM
[4]
  Potency: inconclusive: 16.3 µM [inhibitor, single point]
[5]
  Potency: inconclusive: 20.5 µM [inhibitor, single point]
[7]
  Potency: inconclusive: 4.74 µM [inhibitor, partial curve]
CRL-7250
  Potency: inconclusive: 29.1 µM [inhibitor, single point]
NIH3T3
  max response: inactive: -0.387%
PA-1
  Potency: inactive
SKOV3
  Potency: inconclusive: 2.82 µM [cytotoxic, partial curve, poor fit]
